{
  "source": "paper PMC4336329",
  "about": "(PLoS ONE, 2015)",
  "note": "The campaign covered roughly 310,000 compounds. About 2,200 (0.71%) showed an effect of 50% or more. The effect is printed as a negative number. Some of the results follow.",
  "data": [
    {"target": "human ether-à-go-go-related gene (hERG) potassium channel (human, UniProt Q12809)", "sequence (Q12809 whole entry, looked up)": "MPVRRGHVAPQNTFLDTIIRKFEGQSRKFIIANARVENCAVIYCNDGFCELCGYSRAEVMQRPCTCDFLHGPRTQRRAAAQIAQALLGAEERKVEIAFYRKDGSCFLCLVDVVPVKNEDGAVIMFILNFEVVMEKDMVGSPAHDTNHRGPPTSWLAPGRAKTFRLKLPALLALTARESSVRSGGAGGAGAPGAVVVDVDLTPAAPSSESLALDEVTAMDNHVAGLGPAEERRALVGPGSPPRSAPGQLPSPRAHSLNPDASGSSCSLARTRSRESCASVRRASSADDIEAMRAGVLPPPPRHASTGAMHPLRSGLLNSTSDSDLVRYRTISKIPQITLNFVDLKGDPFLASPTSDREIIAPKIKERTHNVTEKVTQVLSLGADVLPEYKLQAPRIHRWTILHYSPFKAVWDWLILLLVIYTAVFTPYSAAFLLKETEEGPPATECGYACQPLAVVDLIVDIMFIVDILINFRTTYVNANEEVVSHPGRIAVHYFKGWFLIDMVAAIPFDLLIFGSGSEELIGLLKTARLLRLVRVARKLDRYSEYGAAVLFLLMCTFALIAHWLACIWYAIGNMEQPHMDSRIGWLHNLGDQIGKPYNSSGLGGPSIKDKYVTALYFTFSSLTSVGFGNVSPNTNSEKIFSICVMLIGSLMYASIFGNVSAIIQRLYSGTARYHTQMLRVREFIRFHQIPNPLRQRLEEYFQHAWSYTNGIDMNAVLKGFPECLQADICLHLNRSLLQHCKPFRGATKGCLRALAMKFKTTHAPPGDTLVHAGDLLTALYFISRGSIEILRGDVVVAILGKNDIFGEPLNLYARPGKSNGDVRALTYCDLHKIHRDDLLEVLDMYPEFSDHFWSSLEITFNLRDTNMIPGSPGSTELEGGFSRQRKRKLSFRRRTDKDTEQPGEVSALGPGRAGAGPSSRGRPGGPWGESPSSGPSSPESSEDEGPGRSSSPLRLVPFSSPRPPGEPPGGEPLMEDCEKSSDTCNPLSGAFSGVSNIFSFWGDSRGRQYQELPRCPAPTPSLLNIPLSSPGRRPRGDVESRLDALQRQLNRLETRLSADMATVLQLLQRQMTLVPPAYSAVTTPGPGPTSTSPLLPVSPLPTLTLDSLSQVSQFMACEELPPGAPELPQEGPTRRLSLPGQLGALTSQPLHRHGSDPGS", "experiment": "primary screen, population patch clamp on CHO cells stably expressing hERG", "units": {"hERG current change (%, negative = inhibition) at 1uM": "%"}, "values": [
      {"smiles": "O=C(NC1CCCCC1)C1CC(=O)N(CCc2ccc(F)cc2)C1", "note": "(stereo not drawn)", "hERG current change (%, negative = inhibition) at 1uM": 3.87},
      {"smiles": "C=CCn1c(=S)[nH]c2ccc(Br)cc2c1=O", "hERG current change (%, negative = inhibition) at 1uM": 5.42},
      {"smiles": "CCCn1c2ccccc2c2nnc(SCC(=O)Nc3ncccn3)nc21", "hERG current change (%, negative = inhibition) at 1uM": -4.22},
      {"smiles": "CN(C)C(=O)Oc1ccc(NC(=O)N2CCOCC2)cc1", "hERG current change (%, negative = inhibition) at 1uM": 13.8},
      {"smiles": "c1ccc(NCCCNc2ccccc2)cc1", "hERG current change (%, negative = inhibition) at 1uM": 11.5},
      {"smiles": "CCn1c(CC(=O)Nc2ccccc2F)nnc1SCC(=O)N1CCN(c2ccccc2)CC1", "hERG current change (%, negative = inhibition) at 1uM": 10.1},
      {"smiles": "Fc1cccc(Cn2ccc(-c3ccc4c(c3)OCO4)n2)c1", "hERG current change (%, negative = inhibition) at 1uM": 8.45},
      {"smiles": "NS(=O)(=O)c1ccc(CCNC(=O)C2CC(=O)N(Cc3ccccc3Cl)C2)cc1", "note": "(stereo not drawn)", "hERG current change (%, negative = inhibition) at 1uM": 5.89},
      {"smiles": "CC/C(=N\\NC(=O)c1cc(C)nc2ccccc12)c1ccc(C)s1", "hERG current change (%, negative = inhibition) at 1uM": -2.73},
      {"smiles": "COC(=O)c1ccc(N2C(=O)CC(Sc3n[nH]c(C)n3)C2=O)cc1", "note": "(stereo not drawn)", "hERG current change (%, negative = inhibition) at 1uM": -0.0585},
      {"smiles": "CCC/C=N/O", "hERG current change (%, negative = inhibition) at 1uM": 12.4},
      {"smiles": "Cc1ccc2ncnc(NCCCCCC(=O)O)c2c1.Cl", "hERG current change (%, negative = inhibition) at 1uM": 19.2},
      {"smiles": "COc1ccc2[nH]c(C(=O)N(C)Cc3ccccc3)c(C)c2c1", "hERG current change (%, negative = inhibition) at 1uM": 14.1},
      {"smiles": "Cc1ccsc1-c1cc(C(=O)O)c2c(ccc3ccccc32)n1", "hERG current change (%, negative = inhibition) at 1uM": 14.2},
      {"smiles": "O=C(C(=O)N1CCOCC1)c1cn(CCOc2ccccc2)c2ccccc12", "hERG current change (%, negative = inhibition) at 1uM": -0.524},
      {"smiles": "Cc1cc(C)c2cc(CN(CCCN(C)C)C(=S)NCc3ccccc3)c(=O)[nH]c2c1", "hERG current change (%, negative = inhibition) at 1uM": -0.759},
      {"smiles": "O=C(NCc1ccccn1)c1ccc2nc(-c3ccco3)c(-c3ccco3)nc2c1", "hERG current change (%, negative = inhibition) at 1uM": 16.6},
      {"smiles": "COc1cccc2sc(NNC(=O)COc3ccccc3)nc12", "hERG current change (%, negative = inhibition) at 1uM": 9.35},
      {"smiles": "Cc1oc2ccc(OC(=O)COc3c(F)c(F)c(F)c(F)c3F)cc2c1C(=O)OC(C)C", "hERG current change (%, negative = inhibition) at 1uM": 5.43},
      {"smiles": "Cc1cccc(-n2c(-c3ccco3)nc3ccccc3c2=O)c1C", "hERG current change (%, negative = inhibition) at 1uM": 10.9},
      {"smiles": "CC1(C)CCCC2=C1CC1C(=O)N(Cc3cccnc3)C(=O)C1C2", "note": "(stereo not drawn)", "hERG current change (%, negative = inhibition) at 1uM": 3.04},
      {"smiles": "Cc1cc(=O)n2nc(N3CCC(C(=O)NCc4ccco4)CC3)sc2n1", "hERG current change (%, negative = inhibition) at 1uM": 24.7},
      {"smiles": "CCC(=S)/C=C1\\Sc2ccc3ccccc3c2N1CCCS(=O)(=O)[O-].[Na+]", "hERG current change (%, negative = inhibition) at 1uM": 11.1},
      {"smiles": "COc1cccc(-n2nnc3c(=O)n(Cc4ccccc4F)cnc32)c1", "hERG current change (%, negative = inhibition) at 1uM": 0.239},
      {"smiles": "CCCCNC(=S)N(CCO)Cc1cc2cc3c(cc2[nH]c1=O)OCCO3", "hERG current change (%, negative = inhibition) at 1uM": 5.16},
      {"smiles": "CSc1nc(Oc2ccc(Cl)cc2)c2sccc2n1", "hERG current change (%, negative = inhibition) at 1uM": 1.41},
      {"smiles": "COc1ccc(CCNC(=O)c2[nH]c(C)c(C(C)=O)c2C)cc1OC", "hERG current change (%, negative = inhibition) at 1uM": 8.6},
      {"smiles": "CCC1(c2ccccc2)NC(=O)N(CC(=O)Nc2ccc(S(=O)(=O)NC3=NCCCCC3)cc2)C1=O", "note": "(stereo not drawn)", "hERG current change (%, negative = inhibition) at 1uM": 16.7},
      {"smiles": "COC(=O)CSc1nc2ccc(NC(C)=O)cc2s1", "hERG current change (%, negative = inhibition) at 1uM": 13},
      {"smiles": "COc1ccccc1-n1c(SCC(=O)Nc2ccc(F)cc2)nc2c(c1=O)SCC2", "hERG current change (%, negative = inhibition) at 1uM": 7.97},
      {"smiles": "Cc1ccc(C(=O)Nc2ccc(Cc3ccncc3)cc2)cc1[N+](=O)[O-]", "hERG current change (%, negative = inhibition) at 1uM": -6.53},
      {"smiles": "Cc1ccc2[nH]c(=O)c(CN(CCCN(C)C)C(=S)NCCc3ccccc3)cc2c1", "hERG current change (%, negative = inhibition) at 1uM": 4.08},
      {"smiles": "CCOC(C[n+]1c(-c2ccccc2)cc(C)cc1-c1ccccc1)OCC.[O-][Cl+3]([O-])([O-])[O-]", "hERG current change (%, negative = inhibition) at 1uM": 15.2},
      {"smiles": "OCCCNc1nc(-c2ccc(Cl)cc2)nnc1-c1ccc(Br)cc1", "hERG current change (%, negative = inhibition) at 1uM": 7.33},
      {"smiles": "CCOP(=O)(OCC)C(NC(=O)c1ccc(C)cc1)C(Cl)(Cl)Cl", "note": "(stereo not drawn)", "hERG current change (%, negative = inhibition) at 1uM": 13.5},
      {"smiles": "Cc1cc(C)c(S(=O)(=O)Nc2cccc(/C=C/C(=O)O)c2)c(C)c1", "hERG current change (%, negative = inhibition) at 1uM": 10.3},
      {"smiles": "O=c1c2cccnc2[nH]c(=S)n1Cc1ccccc1", "hERG current change (%, negative = inhibition) at 1uM": 17.7},
      {"smiles": "CCn1nc(NC(=O)c2ccncc2)c2cc3ccc(C)cc3nc21", "hERG current change (%, negative = inhibition) at 1uM": -0.872},
      {"smiles": "COc1ccc(NC(=O)CN(C)C(=O)c2sc3cc(Cl)ccc3c2Cl)cc1", "hERG current change (%, negative = inhibition) at 1uM": -0.358},
      {"smiles": "COc1ccc(CN2C(=O)c3cccnc3C2=O)cc1S(=O)(=O)NCc1ccco1", "hERG current change (%, negative = inhibition) at 1uM": 18},
      {"smiles": "CC1CCc2cc(F)ccc2N1C(=O)CN1C(=O)c2ccccc2C1=O", "note": "(stereo not drawn)", "hERG current change (%, negative = inhibition) at 1uM": 7.18},
      {"smiles": "O=c1oc2ccc3ccccc3c2cc1-c1nnc(-c2ccccc2)o1", "hERG current change (%, negative = inhibition) at 1uM": 10.5},
      {"smiles": "Cc1c(C(=O)Nc2ccc(C(=O)O)cc2)cnn1C", "hERG current change (%, negative = inhibition) at 1uM": 16.1},
      {"smiles": "Cc1ccc2c(c1)c1ncnc(N3CCc4ccccc4C3)c1n2C", "hERG current change (%, negative = inhibition) at 1uM": 6.72},
      {"smiles": "COc1ccccc1CNCC(O)(c1ccc(Cl)cc1)c1ccc(Cl)cc1", "hERG current change (%, negative = inhibition) at 1uM": 6.37},
      {"smiles": "Cc1[nH]c(=O)[nH]c(=O)c1S(=O)(=O)N1CCCC(C(=O)NCc2ccc3c(c2)OCO3)C1", "note": "(stereo not drawn)", "hERG current change (%, negative = inhibition) at 1uM": 15.1},
      {"smiles": "Cc1ccc(N=C2C(=O)Nc3ccccc32)cc1C", "hERG current change (%, negative = inhibition) at 1uM": 13.4},
      {"smiles": "CN1C(=O)C(=Cc2ccccc2OCc2ccccc2Cl)C(=O)N(C)C1=O", "hERG current change (%, negative = inhibition) at 1uM": 14.9},
      {"smiles": "Cc1ccccc1NC(=O)NCCCN1CCCC1=O", "hERG current change (%, negative = inhibition) at 1uM": 13},
      {"smiles": "CCn1c(O)c(C=NCCN2CCOCC2)c(=O)n(CC)c1=S", "hERG current change (%, negative = inhibition) at 1uM": 6.82},
      {"smiles": "COC(=O)c1ccc(C2=NOC(C)(c3nnc(-c4cccc(Cl)c4)o3)C2)cc1", "note": "(stereo not drawn)", "hERG current change (%, negative = inhibition) at 1uM": 11.7},
      {"smiles": "O=C(c1ccc2c(c1)N(Cc1cccc(Cl)c1)C(=O)c1ccccc1S2(=O)=O)N1CCN(c2ccccn2)CC1", "hERG current change (%, negative = inhibition) at 1uM": 12.7},
      {"smiles": "COc1ccc(OC)c(C2C3=C(CCCC3=O)Nc3nnnn32)c1", "note": "(stereo not drawn)", "hERG current change (%, negative = inhibition) at 1uM": 5.45},
      {"smiles": "Clc1ccc(-c2csc(Nc3cccnc3)n2)cc1", "hERG current change (%, negative = inhibition) at 1uM": 13.4},
      {"smiles": "CCN(CC)c1ccc(NC(=O)c2ccc(Br)o2)cc1", "hERG current change (%, negative = inhibition) at 1uM": 0.994},
      {"smiles": "CCc1cc(C(=O)N/N=C/c2c(C)[nH]c3ccccc23)cs1", "hERG current change (%, negative = inhibition) at 1uM": 6.63},
      {"smiles": "COC(=O)c1ccc(NC(=O)CSc2nccn2CCc2ccccc2)cc1", "hERG current change (%, negative = inhibition) at 1uM": 18.3}
    ]}
  ]
}
